Results reported in PubChem BioAssay AID624417 (National Center for Advancing Translational Sciences (NCATS), 2012).
The whole screen tested about 410,000 compounds, of which about 6,400 (1.6%) were called active. This list was built around the results that the source calls inconclusive (neither active nor inactive); the mix of calls is not that of the screen. The call rests on the fitted dose curve; in most records, active means well fitted inhibition curve with a large enough effect; inconclusive means small, poorly fitted or top-dose-only effect; inactive means no such curve, though single readings can be large or run the other way. Potencies beside an inconclusive call are fits to weak or partial responses and may not hold up.

Molecular target: Glucagon-like peptide 1 receptor (Homo sapiens) (UniProt P43220)
Sequence of UniProt P43220 (P43220 whole entry, looked up): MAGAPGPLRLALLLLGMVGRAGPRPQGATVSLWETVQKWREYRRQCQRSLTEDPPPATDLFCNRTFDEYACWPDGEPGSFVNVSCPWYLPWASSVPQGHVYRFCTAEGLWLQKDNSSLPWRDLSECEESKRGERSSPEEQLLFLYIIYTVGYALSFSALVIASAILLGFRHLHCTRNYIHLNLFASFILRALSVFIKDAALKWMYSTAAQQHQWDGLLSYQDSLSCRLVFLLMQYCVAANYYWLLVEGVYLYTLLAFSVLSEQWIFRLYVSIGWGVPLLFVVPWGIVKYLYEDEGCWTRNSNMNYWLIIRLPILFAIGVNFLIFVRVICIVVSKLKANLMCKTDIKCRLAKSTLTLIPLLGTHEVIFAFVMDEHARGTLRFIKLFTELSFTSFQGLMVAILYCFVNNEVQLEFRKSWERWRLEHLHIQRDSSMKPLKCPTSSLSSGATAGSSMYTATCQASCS
Assay: qHTS of GLP-1 Receptor Inverse Agonists (Inhibition Mode); further: nearly all actives have a fitted effect of over 55% in size
Settings: HEK293 GLP-1R CRE-luciferase, luminescence, 24 h, GLP-1R form is constitutively active; activity change, negative = inhibition: at 38.3 µM (top of the series) unless noted
How it was run: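 Stable HEK293 clone (constitutively active GLP-1R + cAMP-response luciferase); 200 cells/uL plated, 12 h pre-culture, compound 24 hr, 37 deg C/5% CO2; detection reagent 12 min RT; luminescence.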
On the % scale 0 is the no-effect control and ±100 the full control effect; potency means the concentration at half of the fitted maximal effect; tags describe the fitted curve by direction and shape.

Activity change, negative = inhibition, inactive:
CC(C)Cn1c(-c2ccccc2F)n[nH]c1=S -5.24%
O=C(Nc1ccccc1N1CCOCC1)c1ccc(Cl)nc1 14.1%
CCCNC(=O)c1cnn2c(C)c(Cc3c(C)cc(C)cc3C)c(C)nc12 -18.2%
Cc1cccc2sc(N(Cc3cccnc3)C(=O)c3cccs3)nc12 -21%
COc1ccccc1NC(=O)c1sc2nc(C)c(C(=O)Nc3ccc(C)cc3C)c(-c3cccs3)c2c1N -5.88%
c1ccc(-c2oc3ncnc(NCCCN4CCOCC4)c3c2-c2ccccc2)cc1 -22.8%
CCn1cc(/C=N/NS(=O)(=O)c2ccc(OC)cc2)c(C)n1 1.4%
COCCCNC(=O)c1c(N)n(/N=C/c2cccs2)c2nc3ccccc3nc12 35.9%
COc1cccc(NC(=O)Nc2ccc3nc(C)c(C)nc3c2)c1 5.2%
CCOC(=O)c1cc(-c2ccccc2)n(CCCC(=O)Nc2cccc(C)c2C)c1C 2.3%
Cc1[nH]c(=O)[nH]c(=O)c1S(=O)(=O)N1CCN(c2ccccc2Cl)CC1 2.23%
COc1cc(C=O)ccc1OCc1ccccc1Br -9.29%
Cc1ccccc1C(=O)Nc1ccccc1C(=O)N/N=C\c1ccco1 6.75%
O=[N+]([O-])c1cc(Cl)ccc1N1CCCCC1 3.94%
O=C(Nc1cc(C(F)(F)F)ccc1N1CCOCC1)c1n[nH]c(=O)c2ccccc12 3.04%
O=C(CN1CCCCCC1)Nc1ccc(Cl)cc1F -19.6%
COc1ccc(C(O)c2nc(-c3cncnc3)cs2)cc1 (stereo not given) 5.8%
CC(C)NC(=O)Nc1ccc2c(c1)C(=O)N([C@@H](C)CO)C[C@@H](C)[C@H](CN(C)Cc1ccccc1)OCCCC[C@H](C)O2 -5.98%
O=C1c2[nH]nc(-c3ccccc3O)c2C(c2ccccc2F)N1Cc1cccnc1 (stereo not given) 8.17%

Potency, active:
COc1ccc(C(=O)NCC(c2ccco2)N2CCc3ccccc32)c(OC)c1 (stereo not given) 8.91 µM
OC(CNC1CCCC1)COc1ccc(-c2ccccc2)cc1 (stereo not given) 8.91 µM

Potency, inconclusive:
O=C1CSC(c2cccc(Cl)c2Cl)N1c1ccccn1 (stereo not given) 28.2 µM [inhibitor, single point]
COc1ccc(N2CCN(C(=O)c3ccc(CNS(=O)(=O)c4ccc(C)cc4)cc3)CC2)cc1 28.2 µM [inhibitor, single point]
C=CC[C@@H](CC(=O)N(CCO)Cc1ccccc1)C(=O)N[C@H](COC(=O)[C@@H](CC=C)CC(=O)OC(C)(C)C)C(C)(C)C 11.2 µM [inhibitor, partial curve, poor fit]
O=C1CCCCC/C1=N/Nc1ccc(OCc2ccccc2)cc1 2.24 µM [inhibitor, full curve, poor fit]
COc1cccc(C2c3c(-c4ccccc4O)n[nH]c3C(=O)N2Cc2ccco2)c1 (stereo not given) 31.6 µM [inhibitor, single point]
CCCCn1nnnc1C(c1cc2ccccc2o1)N(Cc1ccccc1)Cc1ccccc1 (stereo not given) 15.8 µM [inhibitor, partial curve, poor fit]
COc1ccccc1CCNC(=O)c1cc(COc2cccc(C(F)(F)F)c2)on1 12.6 µM [inhibitor, partial curve, poor fit]
Cc1cccc(NC(=O)c2ccc(Cl)c(S(=O)(=O)N3CCCCC3)c2)n1 10 µM [inhibitor, partial curve]
Cc1ccc(C(=O)NCC(=O)N(C)Cc2ccc(Cl)cc2Cl)s1 11.2 µM [inhibitor, partial curve, poor fit]
O=C(N/N=C/c1c(O)n(-c2ccccc2Cl)c(=O)c2ccccc12)C1COc2ccccc2O1 (stereo not given) 22.4 µM [inhibitor, single point]
CCc1ccc(CN2CCc3nc(Nc4ccccc4)ncc3C2)cc1 12.6 µM [inhibitor, partial curve, poor fit]
CCOC(=O)c1cc(-c2ccccc2)n(CC(=O)NC(C)(C)C)c1C 11.2 µM [inhibitor, single point]
CCc1ccc(NC(=O)CC2C(=O)N(c3ccc(Cl)cc3)C(=O)N2Cc2ccco2)cc1 (stereo not given) 28.2 µM [inhibitor, single point]
O=C(Nc1ccc(OC(F)(F)F)cc1)c1ccc2c(c1)no[n+]2[O-] 7.08 µM [inhibitor, partial curve, poor fit]
COc1cc(-c2nc(-c3ccccc3)c(-c3cccs3)[nH]2)cc(OC)c1OC 2.24 µM [inhibitor, partial curve, poor fit]
C[C@H](CO)N1C[C@H](C)[C@H](CN(C)Cc2cccc(O)c2)OCc2ccccc2-c2c(n(C)c3ccccc23)C1=O 28.2 µM [inhibitor, single point]
Cc1sc(NC(=O)C2C3CCC(O3)C2C(=O)O)nc1-c1ccc(CC(C)C)cc1 (stereo not given) 20 µM [inhibitor, single point]
O=C(NCc1ccccc1Cl)C1CCCN(C(=O)Nc2ccc(F)cc2)C1 (stereo not given) 35.5 µM [inhibitor, partial curve, poor fit]
CN(CC(=O)Nc1ccc(Cl)c(C(F)(F)F)c1)C(=O)c1cc(-c2ccncc2)nc2ccccc12 2 µM [inhibitor, partial curve, poor fit]
CCCCCCCCN1C(=O)[C@H](CC(=O)NCCCOCCCC)C[C@@]2(C(=O)OCC)CCCC=C12 10 µM [inhibitor, partial curve]
COc1ccc(OCc2nnc(SCC(=O)N3CCCc4ccccc43)n2-c2ccc(C)cc2)cc1 20 µM [inhibitor, partial curve, poor fit]
C=CCSc1nc2sc(C)c(C)c2c(=O)n1CC=C 12.6 µM [inhibitor, partial curve, poor fit]
CN(CC(=O)Nc1ccc(OC(F)(F)F)cc1)C(=O)Cc1c(Cl)cccc1Cl 11.2 µM [inhibitor, partial curve, poor fit]
COc1cc(NC(=O)Nc2nc(C(N)Cc3ccc(C(F)(F)F)cc3)cs2)cc(OC)c1OC (stereo not given) 12.6 µM [inhibitor, single point]
CCN(CC)S(=O)(=O)c1ccc(Cl)c(C(=O)Nc2ccc(Cl)cc2[N+](=O)[O-])c1 28.2 µM [inhibitor, single point]
CCC(C)(C)n1nnnc1C(c1cc2cc(OC)ccc2[nH]c1=O)N1CCc2ccccc21 (stereo not given) 28.2 µM [inhibitor, single point]
CN(C)/N=C/c1ccc(P(c2ccc(/C=N/N(C)C)o2)c2ccc(/C=N/N(C)C)o2)o1 28.2 µM [inhibitor, single point]
Cc1cccc(Nc2nnc(SCC3CCCCO3)s2)c1 (stereo not given) 12.6 µM [inhibitor, partial curve, poor fit]
COc1ccc(CCNC(=O)c2n[nH]c3ccccc23)cc1 28.2 µM [inhibitor, single point]
CCCCNc1nc(NCc2ccccc2)nc2ccccc12 11.2 µM [inhibitor, partial curve, poor fit]
Cc1cccc(C)c1NC(=S)N(Cc1cccnc1)Cc1ccccc1Cl 5.01 µM [inhibitor, full curve, poor fit]
COc1cccc(-c2ccc(NC(=O)C3CCCN(Cc4cnc(C)s4)C3)cc2)c1 (stereo not given) 28.2 µM [inhibitor, single point]
COCCCNc1nc(-c2ccncc2)nc2ccccc12 28.2 µM [inhibitor, partial curve, poor fit]
COC(=O)c1ccc(NC(=O)CN2C(=O)CCc3cc(S(=O)(=O)N4CCCCC4)ccc32)cc1 28.2 µM [inhibitor, single point]
O=S(=O)(NCc1csc(-c2cccs2)n1)c1ccc(Cl)cc1 11.2 µM [inhibitor, single point]
C=CCn1c(C)cc(C(=O)COc2ccc(C)nc2[N+](=O)[O-])c1C 3.98 µM [inhibitor, partial curve, poor fit]
Cc1cccc(Nc2nnc(-c3ccc(C)c(S(=O)(=O)NCC4CCCO4)c3)c3ccccc23)c1 (stereo not given) 28.2 µM [inhibitor, single point]
CCOC(=O)c1ccc(N2C(=O)c3n[nH]c(-c4ccco4)c3C2c2ccc(O)c(OCC)c2)cc1 (stereo not given) 10 µM [inhibitor, single point]
Oc1ccc(N=Nc2ccc3c(c2)OCCO3)c2cccnc12 31.6 µM [inhibitor, single point]
CC(C)(C)c1ccc(OCC(O)CN2CCN(c3ccccn3)CC2)cc1 (stereo not given) 11.2 µM [inhibitor, partial curve, poor fit]
CN(Cc1ccccc1)Cc1cc(=O)oc2ccc3ccccc3c12 28.2 µM [inhibitor, single point]
COC(=O)c1ccc(NC(=O)CSCc2ccccc2C)cc1 10 µM [inhibitor, partial curve]
C#CCN(CC=C)C(=O)c1ccc2nc(C3CCCCC3)oc2c1 11.2 µM [inhibitor, single point]
Cc1cc(C)cc(NC(=S)N(Cc2ccc(Cl)cc2)Cc2ccc(C(=O)O)cc2)c1 12.6 µM [inhibitor, partial curve, poor fit]
